{"source": "PubChem BioAssay AID1508642", "about": "(National Center for Advancing Translational Sciences (NCATS), 2021)", "note": "In all, about 43,000 compounds went through this assay and about 200 (0.47%) were called active. About 12% were inconclusive and are not listed. The call rests on the fitted dose curve; in most records, active means well fitted cell-killing curve with a large enough effect; inconclusive means small, poorly fitted or top-dose-only effect, or effect the other way; inactive means flat fitted curve, though single readings scatter. The list shows a part of the results. On the % scale 0 is the no-effect control and ±100 the full control effect."}
{"experiment": "Cell viability qHTS assay in S16 Pmp22-F2sN cells; further: nearly all actives have a fitted effect of over 65% in size", "conditions": "S16 Pmp22-F2sN Schwann cells (luciferase reporters placed in the Pmp22 gene) viability, CellTiter-Glo, 24 h; at 57.5 µM (top of the series)", "method_in_brief": "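Rat S16 Schwann reporter line, 24 h treatment with library compounds delivered at 23 nL per well. Cell viability by CellTiter-Glo luminescence.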"}
{"compound": "CCOc1ccc2nc(NC(=O)c3cccn(Cc4ccccc4C)c3=O)sc2c1", "activity change, negative = cytotoxicity": "inactive: -5.8%"}
{"compound": "O=C(Nc1ccc2c(c1)OCO2)c1cccn(Cc2ccc(F)cc2)c1=O", "activity change, negative = cytotoxicity": "inactive: 10%"}
{"compound": "CC(C)c1ccc(NC(=O)CN2C(=O)CN=C(c3ccccc3)c3ccccc32)cc1", "activity change, negative = cytotoxicity": "inactive: 0.381%"}
{"compound": "COc1ccc(OCC(=O)N2CCN(CCc3ccccn3)CC2)cc1", "activity change, negative = cytotoxicity": "inactive: 13.4%"}
{"compound": "CCCc1ccc(OCC(=O)Nc2ccc(Cl)cc2C(=O)c2ccccc2)cc1", "activity change, negative = cytotoxicity": "inactive: 11.1%"}
{"compound": "Cc1cccc(CN2C(=O)CN=C(c3ccccc3)c3cc(Cl)ccc32)c1", "activity change, negative = cytotoxicity": "inactive: -14.5%"}
{"compound": "CCOC(=O)c1ccc(NC(=O)c2cccn(Cc3ccccc3F)c2=O)cc1", "activity change, negative = cytotoxicity": "inactive: 2.13%"}
{"compound": "N#Cc1ccccc1NC(=O)c1cccn(Cc2ccccc2)c1=O", "activity change, negative = cytotoxicity": "inactive: -2.07%"}
{"compound": "COc1ccc(Cl)cc1NC(=O)c1sc2nc3c(cc2c1N)N1CCC3CC1", "activity change, negative = cytotoxicity": "inactive: 2.08%"}
{"compound": "CCC(C(=O)Nc1ccccc1F)N1C(=O)CN=C(c2ccccc2)c2ccccc21", "note": "(configuration not stated)", "activity change, negative = cytotoxicity": "inactive: -20%"}
{"compound": "Cn1c(=O)n(C)c2cc(CNCCc3ccccc3F)ccc21", "activity change, negative = cytotoxicity": "inactive: 0.569%"}
{"compound": "O=C1CC(c2ccccc2Br)c2c(c3ccccc3oc2=O)O1", "note": "(configuration not stated)", "activity change, negative = cytotoxicity": "inactive: -3.31%"}
{"compound": "Cc1ccc(-n2c(/C=C/c3ccccc3)nc3ccccc3c2=O)cc1Cl", "activity change, negative = cytotoxicity": "inactive: -16.5%"}
{"compound": "Cc1cccc(C)c1OCC(=O)Nc1ccc(Cl)cc1C(=O)c1ccccc1", "activity change, negative = cytotoxicity": "inactive: 1.7%"}
{"compound": "O=C(COc1ccccc1[N+](=O)[O-])N1CCN(CCc2ccncc2)CC1", "activity change, negative = cytotoxicity": "inactive: 3.06%"}
{"compound": "Cc1ccc(-n2c(/C=C/c3cc(Br)cs3)nc3ccccc3c2=O)cc1C", "activity change, negative = cytotoxicity": "inactive: -1.63%"}
{"compound": "COc1ccc(C)cc1NC(=O)c1cccn(Cc2ccccc2Cl)c1=O", "activity change, negative = cytotoxicity": "inactive: 6.24%"}
{"compound": "Cc1ccc(CNC(=O)CCCn2c(=O)c3sccc3n(CC(=O)Nc3c(C)cccc3C)c2=O)cc1", "activity change, negative = cytotoxicity": "inactive: 4.13%"}
{"compound": "Cc1cccc(-n2c(/C=C\\c3cccc(Br)c3)nc3ccccc3c2=O)c1", "activity change, negative = cytotoxicity": "inactive: -10.8%"}
{"compound": "COc1ccc(C2CC(=O)Oc3c2c(=O)oc2ccccc32)c(OC)c1OC", "note": "(configuration not stated)", "activity change, negative = cytotoxicity": "inactive: 5.17%"}
{"compound": "Cc1ccc(Cn2cccc(C(=O)Nc3ccc(C)c(Cl)c3)c2=O)cc1", "activity change, negative = cytotoxicity": "inactive: -3.66%"}
{"compound": "COc1ccc(NC(=O)CCc2nc(C3=CCN(Cc4cccc(C)c4)CC3)no2)c(OC)c1", "activity change, negative = cytotoxicity": "inactive: -5.17%"}
{"compound": "CCOc1ccc(CN(CCc2ccc3c(c2)OCO3)Cc2ccc(CC)cc2)cc1", "activity change, negative = cytotoxicity": "inactive: -9.42%"}
{"compound": "Cc1ccccc1-n1nc(C)c2c1NC(=O)CSC2c1ccccc1C(F)(F)F", "note": "(configuration not stated)", "activity change, negative = cytotoxicity": "inactive: -12.6%"}
{"compound": "COc1ccc(NC(=O)CN2C(=O)CN=C(c3ccccc3)c3ccccc32)c(OC)c1", "activity change, negative = cytotoxicity": "inactive: 13%"}
{"compound": "COc1ccccc1CN1CCN(C(=O)COc2cccc(C)c2)CC1", "activity change, negative = cytotoxicity": "inactive: 1.93%"}
{"compound": "CCOc1ccc(CN(CCc2ccc3c(c2)OCO3)Cc2cccc(Br)c2)cc1", "activity change, negative = cytotoxicity": "inactive: 12.5%"}
{"compound": "O=C(COc1ccccc1Cl)N1CCN(CCc2ccccn2)CC1", "activity change, negative = cytotoxicity": "inactive: 6.52%"}
{"compound": "Cc1nnc(NC(=O)c2cccn(Cc3ccccc3)c2=O)s1", "activity change, negative = cytotoxicity": "inactive: 5.17%"}
{"compound": "Cc1cccc(OC(C)C(=O)NCC2(N(C)C)CCCCC2)c1C", "note": "(configuration not stated)", "activity change, negative = cytotoxicity": "inactive: 8.48%"}
{"compound": "O=C(Nc1nc2ccccc2s1)c1cccn(Cc2ccccc2)c1=O", "activity change, negative = cytotoxicity": "inactive: 14.2%"}
{"compound": "CCCc1nc(SC)ncc1C(=O)Nc1ccc(Cl)cc1C(=O)c1ccccc1", "activity change, negative = cytotoxicity": "inactive: 9.76%"}
{"compound": "Cc1ccc(-n2c(/C=C/c3cccc(C(F)(F)F)c3)nc3ccccc3c2=O)cc1", "activity change, negative = cytotoxicity": "inactive: 1%"}
{"compound": "NC(=O)c1ccc(NC(=O)c2cccn(Cc3ccccc3)c2=O)cc1", "activity change, negative = cytotoxicity": "inactive: -1.13%"}
{"compound": "CCOc1ccc(CN2C(=O)c3ccccc3Sc3ccc(C(=O)N4CCC5(CC4)OCCO5)cc32)cc1", "activity change, negative = cytotoxicity": "inactive: 20.6%"}
{"compound": "Cc1c(C(c2ccc(O)cc2)c2c(O)c3ccccc3oc2=O)c(=O)n(-c2ccccc2)n1C", "note": "(configuration not stated)", "activity change, negative = cytotoxicity": "inactive: 4.14%"}
{"compound": "CCSc1nnc(NC(=O)c2cccn(Cc3ccc(Cl)cc3)c2=O)s1", "activity change, negative = cytotoxicity": "inactive: 1.3%"}
{"compound": "O=c1c2ccccc2nc(/C=C\\c2cccc(Br)c2)n1-c1ccc(O)cc1", "activity change, negative = cytotoxicity": "inactive: -2.94%"}
{"compound": "Cc1ccc2scc(N3CCN(C)CC3)c(=O)c2c1", "activity change, negative = cytotoxicity": "inactive: 6.04%"}
{"compound": "Cc1ccc(-n2c(/C=C/c3ccccc3)nc3ccccc3c2=O)cc1C", "activity change, negative = cytotoxicity": "inactive: -10.2%"}
{"compound": "CCn1c(CN2CCN(C)CC2)nc2ccccc21", "activity change, negative = cytotoxicity": "inactive: 8.59%"}
{"compound": "O=C(c1ccc2c(c1)N(Cc1c(F)cccc1Cl)C(=O)c1ccccc1S2)N1CCC2(CC1)OCCO2", "activity change, negative = cytotoxicity": "inactive: 16.9%"}
{"compound": "Cc1ccc(C)c(CN2C(=O)c3ccccc3Sc3ccc(C(=O)N4CCC5(CC4)OCCO5)cc32)c1", "activity change, negative = cytotoxicity": "inactive: -27.7%"}
{"compound": "CCOC(=O)c1ccc(NC(=O)CSc2nc3c(cc2C#N)N2CCC3CC2)cc1", "activity change, negative = cytotoxicity": "inactive: 21.1%"}
{"compound": "Cc1cccc(Cn2cccc(C(=O)Nc3nc4ccccc4s3)c2=O)c1", "activity change, negative = cytotoxicity": "inactive: 1.91%"}
{"compound": "COc1cccc(-n2c(/C=C/c3cccc(C)c3)nc3ccccc3c2=O)c1", "activity change, negative = cytotoxicity": "inactive: 3.56%"}
{"compound": "Cc1cccc(-n2c(CC3C(=O)Nc4ccc(C)cc43)nc3ccccc3c2=O)c1", "note": "(configuration not stated)", "activity change, negative = cytotoxicity": "inactive: 5.65%"}
{"compound": "Cc1ccc(-n2c(/C=C/c3cccc4ccccc34)nc3ccccc3c2=O)cc1", "activity change, negative = cytotoxicity": "inactive: -5.96%"}
{"compound": "O=C(Nc1ccccc1C(F)(F)F)c1cccn(Cc2ccccc2)c1=O", "activity change, negative = cytotoxicity": "inactive: 3.95%"}
{"compound": "Cc1ccccc1-n1c(/C=C/c2ccccc2F)nc2ccccc2c1=O", "activity change, negative = cytotoxicity": "inactive: 1.89%"}
{"compound": "COc1ccc(OC)c(C(c2c(O)c3ccccc3oc2=O)c2c(C)n(C)n(-c3ccccc3)c2=O)c1", "note": "(configuration not stated)", "activity change, negative = cytotoxicity": "inactive: -7.73%"}
{"compound": "CC(C)c1ccc(OCC(=O)N2CCN(CCc3ccncc3)CC2)cc1", "activity change, negative = cytotoxicity": "inactive: 4.59%"}
{"compound": "CCOc1ccc(CN(CCc2ccc3c(c2)OCO3)Cc2cc(OC)ccc2O)cc1", "activity change, negative = cytotoxicity": "inactive: 21.9%"}
{"compound": "Cc1cc(OCC(=O)N2CCN(CCc3ccncc3)CC2)ccc1Cl", "activity change, negative = cytotoxicity": "inactive: -10.1%"}
{"compound": "CSc1ccc(CN2CCN(C(=O)COc3cccc(C)c3)CC2)cc1", "activity change, negative = cytotoxicity": "inactive: -5.69%"}
{"compound": "Cc1cccc(-n2c(/C=C/c3c[nH]c4ccccc34)nc3ccccc3c2=O)c1", "activity change, negative = cytotoxicity": "inactive: 4%"}
{"compound": "Cc1cccc(Cn2cccc(C(=O)Nc3cc(C)on3)c2=O)c1", "activity change, negative = cytotoxicity": "inactive: 6.12%"}
